Data published in patent US20250277006A1 (CYTIVA BIOPROCESS R AND D, published 2025).

B1: ZGE86 (designed binder)
chain: VDAKFDKEAQEAFYEILHLPNLTEEQRNAFIQGLKDDPSGSKAILAEAKKINDAQAPK
notes: also called GGI
B2: ZGE95 (designed binder)
chain: B1 chain with G33A, I51R
notes: also called AGR
B3: ZGE90 (designed binder)
chain: B1 chain with G33A, G40R
notes: also called ARI
B4: ZGE96 (designed binder)
chain: B1 chain with G33E, I51L
notes: also called EGL
B5: ZGE91 (designed binder)
chain: B1 chain with G33S, I51V
notes: also called SGV
B6: ZGE0203 (modified version of protein A) (designed binder)
chain: VDNKFNKEQQNAFTEILHLPNLTEEQRNAFIQSLKDDPSQTKEILAEAKKLNDAQAPK
B7: ZGE0201 (modified version of protein A) (designed binder)
chain: IAAQHDKDQQAAFYEILHLPNLTEEQRNAFIQSLRDDPSQSLEILAEAKKLNDAQAPK
B8: ZGE0213 (ZGE0203 scaffold with A/R/I at positions 33/40/51) (designed binder)
chain: B6 chain with S33A, Q40R, L51I
B9: ZGE0223 (ZGE0203 scaffold with S/G/V at positions 33/40/51) (designed binder)
chain: B6 chain with Q40G, L51V
B10: ZGE0233 (ZGE0203 scaffold with A/G/R at positions 33/40/51) (designed binder)
chain: B6 chain with S33A, Q40G, L51R
B11: ZGE0202 (modified version of protein A) (designed binder)
chain: B7 chain with D8E, Q9H, E25D, A46G
B12: ZGE0221 (ZGE0201 scaffold with S/G/V at positions 33/40/51) (designed binder)
chain: B7 chain with Q40G, L51V
B13: ZGE0211 (ZGE0201 scaffold with A/R/I at positions 33/40/51) (designed binder)
chain: B7 chain with S33A, Q40R, L51I
B14: ZGE0232 (ZGE0202 scaffold with A/G/R at positions 33/40/51) (designed binder)
chain: B7 chain with D8E, Q9H, E25D, S33A, Q40G, A46G, L51R
B15: ZGE0231 (ZGE0201 scaffold with A/G/R at positions 33/40/51) (designed binder)
chain: B7 chain with S33A, Q40G, L51R
B16: ZGE0212 (ZGE0202 scaffold with A/R/I at positions 33/40/51) (designed binder)
chain: B7 chain with D8E, Q9H, E25D, S33A, Q40R, A46G, L51I
B17: ZGE0222 (ZGE0202 scaffold with S/G/V at positions 33/40/51) (designed binder)
chain: B7 chain with D8E, Q9H, E25D, Q40G, A46G, L51V

These binders were tested against T1, Fab fragment of trastuzumab (comprising VH3) (assay: SPR; ligand immobilized on CM5; 1 g/L Fab).
T1 construct: also called trastuzumab Fab fragment; Fab (VH3)
T1 sequence (chain, as listed by the source, chain 2 of 2, other chains not shown): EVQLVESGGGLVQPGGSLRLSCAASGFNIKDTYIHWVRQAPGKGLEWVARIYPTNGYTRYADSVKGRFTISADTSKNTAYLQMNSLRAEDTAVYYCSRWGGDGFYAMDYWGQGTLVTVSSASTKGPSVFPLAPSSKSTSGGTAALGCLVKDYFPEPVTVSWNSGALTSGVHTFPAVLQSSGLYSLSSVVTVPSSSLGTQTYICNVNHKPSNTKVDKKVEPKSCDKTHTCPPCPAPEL
B1 was tested, and the “analyte binding Relative (RU)” value was -18.4 RU.
With B2 the “analyte binding Relative (RU)” value was -0.6 RU.
In the case of B3, the “analyte binding Relative (RU)” value is reported as -0.9 RU.
B4 was tested, and the “analyte binding Relative (RU)” value was -3.3 RU.
With B5 the “analyte binding Relative (RU)” value was -7 RU.

Biological target: T1, Fab fragment of trastuzumab (comprising …)
Assay: SPR; ligand immobilized on CM5; 1 g/L Fab
Remark: another data set of the same source
B1 was tested, and the “Fab binding RU” value was -18.4 RU.
B2 was tested, and the “Fab binding RU” value was -0.6 RU.
B3 was tested, and the “Fab binding RU” value was -0.9 RU.
B4 was tested, and the “Fab binding RU” value was -3.3 RU and the “Fab binding RU (% of SEQ ID NO: 58)” value was 0%.
In the case of B5, the “Fab binding RU” value is reported as -7 RU and the “Fab binding RU (% of SEQ ID NO: 58)” value is reported as 0%.

These binders were tested against T1, Fab fragment of trastuzumab (comprising …) (assay: SPR; ligand on CM5; max response at 800 nM, rounded to 50 Ru).
For B6, the “max response (Ru)” value was 100 Ru.
In the case of B7, the “max response (Ru)” value is reported as 150 Ru.

These binders were tested against T2, Fc fragment from adalimumab in the same assay as above.
T2 construct: also called adalimumab Fc fragment
In the case of B6, the “max response (Ru)” value is reported as 1250 Ru.
With B8 the “max response (Ru)” value was 1650 Ru.
With B9 the “max response (Ru)” value was 650 Ru.
For B10, the “max response (Ru)” value was 700 Ru.
For B7, the “max response (Ru)” value was 1700 Ru.
With B11 the “max response (Ru)” value was 1800 Ru.
For B12, the “max response (Ru)” value was 1400 Ru.
In the case of B13, the “max response (Ru)” value is reported as 2400 Ru.
B14 was tested, and the “max response (Ru)” value was 1400 Ru.
In the case of B15, the “max response (Ru)” value is reported as 1500 Ru.
In the case of B16, the “max response (Ru)” value is reported as 2400 Ru.
In the case of B17, the “max response (Ru)” value is reported as 2000 Ru.

Residue numbers refer to the chain shown, from its start.
